The values that follow come from article PMC12136788.

This is one part of the list.

Sequences and labels used below:
T1: UNK ZnF1-3 (human, UniProt Q9C0B0 31-174)
T1 sequence: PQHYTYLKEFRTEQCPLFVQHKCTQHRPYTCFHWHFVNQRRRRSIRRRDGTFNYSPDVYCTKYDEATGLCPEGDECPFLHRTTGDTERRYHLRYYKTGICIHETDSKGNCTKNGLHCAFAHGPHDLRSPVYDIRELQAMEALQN

B1: chr7:54825262:54825263:-_ENSG00000132432_ENST00000352861|hu_hu|hu_hu_hu_mus_False|78_78 (ssRNA)
RNA: GGGAGUUCUACAGUCCGACGAUCCUGCCGGCUGGGCUCCACAAACUGCAUUACCUGCAUGACUGCCGUUGGAUGGCGGAUUGAGAGCGUAGAGACACGUAGCUCAGGAGAGAACCGAGCCCAACGGAACCGGAAGCUGGCAACCAACAGAGGAUUGAGCAUCA
B2: 21160599_21167274_402_CDS_ENSMUSG00000024317_ENSMUST00000052396|mouse|control|control (ssRNA)
RNA: GGGAGUUCUACAGUCCGACGAUCAUGUAUUCCACUUUCUCUCAUUGCAGUCAGGAAACAUUUUCUACAGAAAACGUGCUGACAGGCCGCGGUCCGCACCGGCGUCUUGAGCACCUCCUGACAGACAGGGCAGUAGAAAUCAUCCAACAGAGGAUUGAGCAUCA
B3: chr1:226180700:226180701:-_ENSG00000143751_ENST00000272091|hu_mus|FALSE|FALSE (ssRNA)
RNA: GGGAGUUCUACAGUCCGACGAUCAAGUGCUCGAAGCAUAGACCCAAAACCUCCUUUCCCCCCACGAAGCCUGGGCUCCAAACUGUACACGGCUCCAUGCUGCACCUUAUCACCGGCAUUAACGAGGACUCCAUUGCACGUCACCAACAGAGGAUUGAGCAUCA
B4: chr1:25669491:25669492:+_ENSG00000183726_ENST00000374358|perfect_dup|motif|central (ssRNA)
RNA: GGGAGUUCUACAGUCCGACGAUCACAGGCAUGGUAUGAGUGGUUGAAAUCUUUCAUGGUGGGAUAAAUAACAGCUGCAUCGGUGAUAAUCCACCAGCCUGUAAAAAAUAGUACACCAGCAGCAAUGGAAGCAAUAGUAUUGCGCAACAGAGGAUUGAGCAUCA
B5: chr11:120422317:120422318:-_ENSMUSG00000025130_ENSMUST00000026122|mus_mus|motif|central (ssRNA)
RNA: GGGAGUUCUACAGUCCGACGAUCGCUGACCUGGACAGAGAUCCCUUUCCAAAAUUGAAAAGCAAAAGAAGAGACAGGUCGGAGUGUACGUGUGUCAGAUGAGUGUGGCUUCAGAAAGAUUCCCUGGGUUCUGAUGGCGCUCCCCAACAGAGGAUUGAGCAUCA
B6: chr3:176740097:176740098:-_ENSG00000177565_ENST00000430069|hu_mus|hu_hu_hu_mus_True|1_68 (ssRNA)
RNA: GGGAGUUCUACAGUCCGACGAUCUGUUUUGUAUACCACAAAAGGAGGCACUUUCAGUAUCUGCAAAAGGUAUUUAAUCCUAAAACAUACUCACCUAGAGGAUAACUCAGGAAAACAAUCUGUUACACUCUAAGACCUUAGGAACAACAGAGGAUUGAGCAUCA
B7: chr18:38101097:38101098:-_ENSMUSG00000024454_ENSMUST00000043498|mus_mus|FALSE|FALSE (ssRNA)
RNA: GGGAGUUCUACAGUCCGACGAUCGGUGCUGACAUCUGGAUGGAGUGUGAAAUCUGGGGCAAAGUACUCGAAGUAUUCACUAUAGGGAAGUUCCUCACUAAUGGCCUCUUCUACCAGCAGAGAUGUUUCAUAUGUCCAACACCGCAACAGAGGAUUGAGCAUCA
B8: chr1:33859959:33859960:-_ENSMUSG00000042197_ENSMUST00000044455|mus_mus|FALSE|FALSE (ssRNA)
RNA: GGGAGUUCUACAGUCCGACGAUCCCCUUUGUCAUCAGCUGACGGAGAUUUGCAGUCAGACUCCUCUUCAACUGUGGAUAAACUGUCCUCCUUAGAGCUGGAGAUAUCCCAAGGAACUGACGAGCUCUCACUUGGCCUAGAAUGCAACAGAGGAUUGAGCAUCA
B9: chr3:31621302:31621303:+_ENSG00000163527_ENST00000295770|hu_hu|motif|central (ssRNA)
RNA: GGGAGUUCUACAGUCCGACGAUCUAAAAUCCAAUGAAUAAGGCCAGCGGUUAUCAUCAACCCUGGGUAAACAGUACCACCGGCGGUUCUUCCUAGUGGAUACCAUGCUCUUUCAUCAAACCAAUUUAAAAAUUCAUAGAACCCCAACAGAGGAUUGAGCAUCA
B10: chr1:107181519:107181520:-_ENSMUSG00000047496_ENSMUST00000058688|mus_hu|FALSE|FALSE (ssRNA)
RNA: GGGAGUUCUACAGUCCGACGAUCGUGUCUUUGCAGUGCAGGUAAUGGCAAGCUCACAGGCAUCCAGUACUCACAGGUGUGUUCAUUUCUGUAUCUGUCACCGAGUCUCUUUCACCCCUUCUGCGUGAUGACAUCAAGUGGAAACAACAGAGGAUUGAGCAUCA
B11: chr4:115894766:115894767:+_ENSMUSG00000028698_ENSMUST00000030464|mus_hu|mus_mus_mus_hu_True|38_78 (ssRNA)
RNA: GGGAGUUCUACAGUCCGACGAUCUUCCACACGGAAAUGUACUUCGGGUUUUCCAACGCCAGUACAAAGUCCGGCCAAACUACCCGAACAGGGUCCUGUCCUCCUCUCCUACAGAACACAACAAAAUGCCCCCGAACUUUCAAGCAACAGAGGAUUGAGCAUCA
B12: 8639371_8660485_348_CDS_ENSMUSG00000001300_ENSMUST00000001319|mouse|control|control (ssRNA)
RNA: GGGAGUUCUACAGUCCGACGAUCCAUAUAAACUUUAUAAUAUUCAUACUGGCCAACAGUUUUAGAGUCCACUUUGGGGCAAAUAAUAUCCAAUUUGUCUCCUAUCUGUGGGUAUAGUACCAGGCCUUGUCCGGGUAGAAAUUUCAACAGAGGAUUGAGCAUCA
B13: chr1:113244022:113244023:-_ENSG00000155366_ENST00000369637|hu_mus|FALSE|FALSE (ssRNA)
RNA: GGGAGUUCUACAGUCCGACGAUCCCAGCCCGGUUCCCAGAGGCAGGGAGGAAGGGCCUAGCAGCCCCCACUUGGGGCUGGGAAACUCAUGCAGUCCUGGGCAGAAAGGAACCAAAAAAGAAACUGGCAGCAUGGAGUCCUACACAACAGAGGAUUGAGCAUCA
B14: chr7:118215863:118215864:-_ENSMUSG00000005610_ENSMUST00000162415|mus_hu|motif|central (ssRNA)
RNA: GGGAGUUCUACAGUCCGACGAUCUAUUGCAACAACUCAAGUAUUACUGAGCAAAGUGCAUUUCUACAGUAUUCAGUGUUGCGGUUCAGUUUUCUAACUUAAAACAGCCUAUGAUAACUGGCAGCAAAGAAGGUCCUUGCAAUACAACAGAGGAUUGAGCAUCA
B15: 56591056_56591176_1091_CDS_ENSG00000188021_ENST00000338222|human|control|control (ssRNA)
RNA: GGGAGUUCUACAGUCCGACGAUCAUUACCCCCAAACUGCUCUUGUGCGGCAUUCAGCAUCGGCUCUUGAAUGUCAGUGUACAUGCGCCGUAAAGCAUUAUAGCCACCUGGGAUGCUUUCUAGAUUGCUAAGAGCCAGGUCUUGCAACAGAGGAUUGAGCAUCA
B16: 120167749_120168985_582_CDS_ENSMUSG00000027291_ENSMUST00000028752|mouse|control|control (ssRNA)
RNA: GGGAGUUCUACAGUCCGACGAUCAACGCAGAUAGAAUUUUCACACCAUGCCAUGGACUUGGGCACAUCUGGCACACUAAAGUCUCCCUGCAGUUCGUGGAAUUCUCUGUCCUUCCAGAAGUACAGCUGCAGCUUCUUCCUCACCAACAGAGGAUUGAGCAUCA
B17: chr1:78428562:78428563:-_ENSG00000162613_ENST00000370768|hu_hu|motif|central (ssRNA)
RNA: GGGAGUUCUACAGUCCGACGAUCAAUUGUAAAUAACUUCAUAUUAGGAUCUGCAUUUGGUGGAGGAUUUCUCUGAAGUUCGGUUCUUGCACCAGACUGCUGGCUUAUGCUUUUUAUGGUUUCACCUCCUUUUCCUAUUAUUAACAACAGAGGAUUGAGCAUCA
B18: chr11:106683525:106683526:-_ENSMUSG00000018363_ENSMUST00000103067|mus_mus|FALSE|FALSE (ssRNA)
RNA: GGGAGUUCUACAGUCCGACGAUCUGAUCCCUCUUUAGCCAAUUGUUUACAAAGGUGGAACAAUCCAAAAUAACUUUAUUUAAUUUCUUACAAAGAGCAGGUAUAGGAGUUGUUCAAAAAUCAUGUACUCAAUCAAAAUGAAGUCAACAGAGGAUUGAGCAUCA
B19: chr10:33190432:33190433:-_ENSG00000150093_ENST00000302278|hu_mus|hu_hu_hu_mus_True|88_88 (ssRNA)
RNA: GGGAGUUCUACAGUCCGACGAUCUACAUUUUCCAAACCUGCAUGUGAGUAAAACCAUGGCCACAGAGCCCCAAAACUACCCUACUGUGACUAAGAUGCUGCUGCUGUGAGCUUGGUGUUGCAAAAUCCGCCUGAGUAGGAUUCCAACAGAGGAUUGAGCAUCA
B20: 231473864_231473984_131_5pUTR_ENSG00000010072_ENST00000295050|human|control|control (ssRNA)
RNA: GGGAGUUCUACAGUCCGACGAUCCGGAAACGCGCUUGAGAACGAGAACGGAGCUUACCCCAAACGCCGAAGCCAAGAUUCUAGGGCUUUAAAAAAAGCAGUCAGCAUGACACCUCCUAGUGGGCGCAGAACCUGGGCUCACAGCAACAGAGGAUUGAGCAUCA
B21: chrX:71549400:71549401:+_ENSMUSG00000019087_ENSMUST00000019231|mus_hu|mus_mus_mus_hu_False|1_18 (ssRNA)
RNA: GGGAGUUCUACAGUCCGACGAUCGCAGUAGGAAGAGGGAAGCUCUUCAGUCCAGUGCGCUGCAGGGUGGGAAAGCAACAACACGGACACCGUCCCACCCUCAACCCCCCCACUGGCAUGUCACACAACAAUCUGGGAAGUGAUCAACAGAGGAUUGAGCAUCA
B22: chr5:73930785:73930786:-_ENSG00000171617_ENST00000302351|hu_mus|FALSE|FALSE (ssRNA)
RNA: GGGAGUUCUACAGUCCGACGAUCCUUGGCUGUCACAUCUCCCACCUUGGUCCACUGGUAAGUCUCACUAUUGAAUUUGUAAGCGGAGCAGGCAGAGAACUCUGUAUCUCCACCCAUGAUAAAAAUCUGGUUUCCCAGCACAGCCAACAGAGGAUUGAGCAUCA

For this test, the target named is T1, UNK ZnF1-3. The test can be described thus: nsRBNS (natural sequence RNA bind-n-seq); RBNS binding buffer (assumed for nsRBNS): 25 mM Tris pH 7.5, 150 mM KCl, 3 mM MgCl2, 0.01% Triton X-100, 500 ug/ml BSA, 20 U/ml SUPERase-In, 4 C; UNK is unkempt and MSI1 is Musashi-1; names of the RNAs are library labels; protein concentration not given here; high values mean tight binding.
Turning to B1, the binding signal turned out to be 1.46 enrichment R.
B2 yielded a binding signal of 0.889 enrichment R.
The result for B3 reads 1.28 enrichment R; that for B4, 1.81 enrichment R; that for B5, 1.35 enrichment R.
In turn, B6 yielded a binding signal of 0.769 enrichment R.
With B7 the figure was 1.57 enrichment R; with B8, 0.942 enrichment R.
The result for B9 reads 1.12 enrichment R.
B10 registered a binding signal of 0.64 enrichment R.
The result for B11 reads 0.798 enrichment R; that for B12, 1.19 enrichment R.
Take B13: the binding signal was determined as 1.13 enrichment R.
With B14, the binding signal stood at 0.963 enrichment R.
B15 returned a binding signal of 0.829 enrichment R.
With B16, the binding signal was determined as 1.09 enrichment R.
For the molecule B17, the binding signal turned out to be 0.537 enrichment R.
For B18, the binding signal worked out at 2.05 enrichment R.
Turning to B19, the binding signal was 0.993 enrichment R.
Take B20: the binding signal came to 0.835 enrichment R.
As for B21, the binding signal came out at 1.26 enrichment R.
For the molecule B22, the binding signal came out at 1.77 enrichment R.
